{"source": "the RNAGym collection of RNA variant scans (doi:10.7554/elife.90254)", "parents": {"B1": {"name": "LINE1-mini (parent)", "chain": "GGCAGAGCUCAACACAGCGUGGCAAAGUGGCUGUGGCUAGACUGCC"}}, "note": "Read counts are not given, so values of variants with three or more changes are uncertain."}
{"variants_of": "B1", "experiment": "self-cleavage, relative activity (ratio to wild type); higher = more cleavage; in vitro, sequencing; the parent is a self-cleaving ribozyme"}
{"variant": "A11C C13U G27C G30A U43C", "self-cleavage": 0.01}
{"variant": "C10U G29U G40C C46A", "self-cleavage": 0.04}
{"variant": "A11G A12G G36A", "self-cleavage": 0.02}
{"variant": "C10U G27A G36A", "self-cleavage": 0.02}
{"variant": "A11C G19C C45U", "self-cleavage": 0.03}
{"variant": "A11C U20G G40A C45A", "self-cleavage": 0.01}
{"variant": "A11C C15G C18G C23G U28G U32C", "self-cleavage": 0}
{"variant": "C10U G27U G29A C37A U38G G44U", "self-cleavage": 0.02}
{"variant": "A11C A12G C13G U28G G33U", "self-cleavage": 0.01}
{"variant": "A11G U20G G36C G40U", "self-cleavage": 0.01}
{"variant": "C10U G22C U28A C42G", "self-cleavage": 0.01}
{"variant": "C10U A14G U20C U32A G40U", "self-cleavage": 0.07}
{"variant": "A11G A12U G21C", "self-cleavage": 0.03}
{"variant": "C10U G27C C31A C42G", "self-cleavage": 0.02}
{"variant": "A11G G29A G30A", "self-cleavage": 0.07}
{"variant": "C10U U32G A39C", "self-cleavage": 0.06}
{"variant": "A11G G21C G29A U32G A41G", "self-cleavage": 0.01}
{"variant": "C10U C37G A39G C42U", "self-cleavage": 0.02}
{"variant": "A11C G19A G22C", "self-cleavage": 0.03}
{"variant": "C10U C37U A39U", "self-cleavage": 0.04}
{"variant": "A11G G21U G27U G29U", "self-cleavage": 0}
{"variant": "A11G G29C A39U", "self-cleavage": 0}
{"variant": "A11G C13U G33A C37U", "self-cleavage": 0.03}
{"variant": "A11G C13A G36U C37U", "self-cleavage": 0.03}
{"variant": "A11G C15G G17C", "self-cleavage": 0.01}
{"variant": "A11G G33U C42U", "self-cleavage": 0.11}
{"variant": "A11C C15U C37U", "self-cleavage": 0.03}
{"variant": "C10U G17A U32G U34A C42A C45U", "self-cleavage": 0.03}
{"variant": "A11G C15G G27C U32C G33U C42A C45U", "self-cleavage": 0}
{"variant": "A11G U43C C45G", "self-cleavage": 0}
{"variant": "C10U G21U A41C", "self-cleavage": 0.05}
{"variant": "C10U G21U A41U", "self-cleavage": 0.14}
{"variant": "C10U C23G G29C C45G", "self-cleavage": 0.02}
{"variant": "A11G G27C U43C C46U", "self-cleavage": 0.01}
{"variant": "A11C G27C U38C", "self-cleavage": 0.01}
{"variant": "A11C G27A G35A", "self-cleavage": 0}
{"variant": "A11G G17U A24C G40A G44A C45U", "self-cleavage": 0}
{"variant": "C10U U20A U38C", "self-cleavage": 0.18}
{"variant": "C10U C15G U28A G40U", "self-cleavage": 0.01}
{"variant": "A11G A16U C31G C46U", "self-cleavage": 0.01}
{"variant": "A11C C23A G35U", "self-cleavage": 0.01}
{"variant": "A11G C15U G36A", "self-cleavage": 0.01}
{"variant": "C10U G27A G40U", "self-cleavage": 0.01}
{"variant": "A11C U20A C23A G36C", "self-cleavage": 0.01}
{"variant": "C10U C13A G29U G40C", "self-cleavage": 0.03}
{"variant": "C10U G44U C45A", "self-cleavage": 0.01}
{"variant": "A11C C13G G27U G44C", "self-cleavage": 0.01}
{"variant": "C10U C23G A24U G33U U34A G35A", "self-cleavage": 0.02}
{"variant": "C10U A14U A26U C37G", "self-cleavage": 0.06}
{"variant": "C10U A14C G36C C37A", "self-cleavage": 0.04}
{"variant": "C10U G27U G30C", "self-cleavage": 0.37}
{"variant": "A11G G22A A24U G30C U32A U34C", "self-cleavage": 0.03}
{"variant": "A11G G21A G22A", "self-cleavage": 0.01}
{"variant": "A11C U38G G40U", "self-cleavage": 0.01}
{"variant": "C10U C13A C15G A16U U20C U28C", "self-cleavage": 0.01}
{"variant": "A11G C13U U28A U34A", "self-cleavage": 0.01}
{"variant": "A11C U32G G33A", "self-cleavage": 0.02}
{"variant": "C10U G22A C31U U32A U38A", "self-cleavage": 0.06}
{"variant": "A11G A14C A24U G27U G36A", "self-cleavage": 0.01}
{"variant": "A11G A25U G30C", "self-cleavage": 0.01}
{"variant": "A11G C15G G36C", "self-cleavage": 0.01}
{"variant": "A11C A12G G30U G44C", "self-cleavage": 0.04}
{"variant": "C10U C13A G19U", "self-cleavage": 0.02}
{"variant": "A11C A12C G40C A41U G44A", "self-cleavage": 0.01}
{"variant": "A11G A24G G27A C45A", "self-cleavage": 0.03}
{"variant": "A11C A12G G17U G30U C46G", "self-cleavage": 0.04}
{"variant": "A11G C23U A24G C42A", "self-cleavage": 0.01}
{"variant": "A11G A25U G40U U43A C45U", "self-cleavage": 0.02}
{"variant": "A11G C13G G36U G40C", "self-cleavage": 0.01}
{"variant": "A11G C15G C23A", "self-cleavage": 0}
{"variant": "A11G A12G C42G", "self-cleavage": 0.03}
{"variant": "C10U C18G A24G", "self-cleavage": 0.08}
{"variant": "C10U A14U C37U", "self-cleavage": 0.04}
{"variant": "C10U C18G A26G", "self-cleavage": 0.24}
{"variant": "A11C A14C G33U C46U", "self-cleavage": 0}
{"variant": "A11G G19C U28A C37U A39C G44U", "self-cleavage": 0.01}
{"variant": "A11G C13A G27U", "self-cleavage": 0.03}
{"variant": "A11C U34G C37U A39C", "self-cleavage": 0.01}
{"variant": "C10U U20A A41C", "self-cleavage": 0.05}
{"variant": "A11G U43A G44U", "self-cleavage": 0.02}
{"variant": "A11C U20A G21C", "self-cleavage": 0.01}
{"variant": "A11G G17C G44U", "self-cleavage": 0.02}
{"variant": "C10U G17C A25G", "self-cleavage": 0.29}
{"variant": "C10U A16U A25G C45A", "self-cleavage": 0}
{"variant": "C10U U32C G36U", "self-cleavage": 0.03}
{"variant": "C10U C31G C46A", "self-cleavage": 0.07}
{"variant": "A11G G27A U28G G33A", "self-cleavage": 0.01}
{"variant": "A11G G17A G36A", "self-cleavage": 0}
{"variant": "A11G A12U U20C", "self-cleavage": 0.02}
{"variant": "A11G A12C U32G", "self-cleavage": 0.01}
{"variant": "A11C C13U A14G G29U", "self-cleavage": 0}
{"variant": "A11G A12U G27U", "self-cleavage": 0.02}
{"variant": "A11C G19A C31A", "self-cleavage": 0.01}
{"variant": "C10U U28A U38A A41C", "self-cleavage": 0.02}
{"variant": "C10U U38A A39U", "self-cleavage": 0.09}
{"variant": "A11G G33A U43A", "self-cleavage": 0.05}
{"variant": "A11U A12C C15U A24G A41C", "self-cleavage": 0}
{"variant": "A11U A12G C18G C23U", "self-cleavage": 0.01}
{"variant": "A11C A24C C31A U38G", "self-cleavage": 0}
{"variant": "C10U C31A G33U U38C", "self-cleavage": 0.01}
{"variant": "A11G G17A G19C G22U A26C C31U C46G", "self-cleavage": 0.01}
{"variant": "A11C G27A G29U C31A", "self-cleavage": 0}
{"variant": "C10U G21U G22A U32A G36U C42G", "self-cleavage": 0.01}
{"variant": "C10U A14U G22U U32G", "self-cleavage": 0.04}
{"variant": "C10U U20A G36U", "self-cleavage": 0.01}
{"variant": "C10U U20A G36A", "self-cleavage": 0.02}
{"variant": "C10U C15A A16U G19A", "self-cleavage": 0.07}
{"variant": "C10U A12U C18U U28G G36C", "self-cleavage": 0.01}
{"variant": "A11C A12G G17U C31A G33U G44A", "self-cleavage": 0.02}
{"variant": "A11G U20C G35A A41U C45G", "self-cleavage": 0}
{"variant": "C10U C13U G22U", "self-cleavage": 0.03}
{"variant": "A11C A16G C45A", "self-cleavage": 0.01}
{"variant": "A11C C13U C15G", "self-cleavage": 0.01}
{"variant": "A11C C18G G27A C45G", "self-cleavage": 0.01}
{"variant": "C10U G17U A24C", "self-cleavage": 0.2}
{"variant": "C10U C13A G33A", "self-cleavage": 0.02}
{"variant": "C10U C15G A26G G27U", "self-cleavage": 0.07}
{"variant": "A11G U43G C45U", "self-cleavage": 0.01}
{"variant": "C10U C15U G33C U43C", "self-cleavage": 0.02}
{"variant": "C10U G17A A25C G30U", "self-cleavage": 0.02}
{"variant": "C10U G22U C37U C46A", "self-cleavage": 0.01}
{"variant": "A11G C23G A39U", "self-cleavage": 0.04}
{"variant": "A11C C13G G19U C31A U34G U43G", "self-cleavage": 0}
{"variant": "A11G C13U C46U", "self-cleavage": 0}
{"variant": "A11G U32A G40A", "self-cleavage": 0.03}
{"variant": "C10U G21C G22A", "self-cleavage": 0.27}
{"variant": "C10U G29U G36U G44A", "self-cleavage": 0.01}
{"variant": "A11C U20C A41C", "self-cleavage": 0.02}
{"variant": "A11G G17U A26G G40A", "self-cleavage": 0.01}
{"variant": "A11C A16U G33A", "self-cleavage": 0}
{"variant": "A11C A16U G29U G40U", "self-cleavage": 0.04}
{"variant": "A11G U28A C31U U43C", "self-cleavage": 0.01}
{"variant": "A11U A12U A25C C46A", "self-cleavage": 0.05}
{"variant": "C10U C15G A16U G17U U20G", "self-cleavage": 0.03}
{"variant": "A11C C13G G27C G36A", "self-cleavage": 0.01}
{"variant": "C10U C18A G29A", "self-cleavage": 0.2}
{"variant": "C10U G21C G27A U34C", "self-cleavage": 0.16}
{"variant": "A11C G22C G30A", "self-cleavage": 0.07}
{"variant": "A11G A26C C37U", "self-cleavage": 0.02}
{"variant": "A11C C15A C18A", "self-cleavage": 0.01}
{"variant": "C10U G30U C31U G33U", "self-cleavage": 0.02}
{"variant": "A11C G17A U28A G33U C46U", "self-cleavage": 0.01}
{"variant": "C10U G33A G36A", "self-cleavage": 0.03}
{"variant": "C10U C23G A41G", "self-cleavage": 0.02}
{"variant": "A11G G19A U28C", "self-cleavage": 0.02}
{"variant": "C10U G29U U34G", "self-cleavage": 0.69}
{"variant": "A11C G17U G33C G36U C37A A39U C42A C45A", "self-cleavage": 0}
{"variant": "A11C A14U C15G G36A", "self-cleavage": 0}
{"variant": "A11C G29C G30U U32G", "self-cleavage": 0.01}
{"variant": "A11G C18G U28G G35A C45U", "self-cleavage": 0.02}
{"variant": "A11G A24G G30C G35U", "self-cleavage": 0.02}
{"variant": "C10U A14U G17A C18A", "self-cleavage": 0.03}
{"variant": "A11G A16C G22U G29U A39G", "self-cleavage": 0.01}
{"variant": "A11G C15G C18G G29U", "self-cleavage": 0.02}
{"variant": "A11C A39U G40U", "self-cleavage": 0.03}
{"variant": "C10U C23U G33U U38G A39G", "self-cleavage": 0.03}
{"variant": "C10U G21U C23G A26U", "self-cleavage": 0.24}
{"variant": "C10U A41C C46U", "self-cleavage": 0.02}
{"variant": "A11C G17C C37G", "self-cleavage": 0}
{"variant": "C10U C18G G22C C45U C46A", "self-cleavage": 0.14}
{"variant": "A11G C23G G36U C42A", "self-cleavage": 0}
{"variant": "A11G A41G C46A", "self-cleavage": 0.02}
{"variant": "A11C G21U A39G", "self-cleavage": 0.08}
{"variant": "A11C C18G G19U", "self-cleavage": 0.01}
{"variant": "C10U C15A U32G A41C C42A", "self-cleavage": 0.04}
{"variant": "C10U G35U C37G", "self-cleavage": 0.06}
{"variant": "C10U U28G A39U", "self-cleavage": 0.16}
